Laboratory results from patent US20110256153A1 (IMMUNOGEN, published 2011).

Target: T1, human CD37 (human, UniProt P11049 1-278)
T1 construct: Tetraspanin antigen; Expressed on 300-19 cells transfected with pSRa-CD37 (entire CDS) or endogenous on WSU-DLCL-2, BJAB and Ramos lymphoma cells; also called CD37 antigen; human CD37 wildtype
T1 sequence: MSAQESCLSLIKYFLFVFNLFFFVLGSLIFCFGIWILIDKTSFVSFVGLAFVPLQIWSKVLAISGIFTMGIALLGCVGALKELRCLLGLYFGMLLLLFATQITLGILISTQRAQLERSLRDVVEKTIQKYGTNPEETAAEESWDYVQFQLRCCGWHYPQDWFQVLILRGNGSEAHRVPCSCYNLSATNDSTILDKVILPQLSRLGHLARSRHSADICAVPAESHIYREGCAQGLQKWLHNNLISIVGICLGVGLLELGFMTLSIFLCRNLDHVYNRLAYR
Assay: flow cytometry titration on Ramos cells; apparent Kd
Method: Binding specificity was tested by flow cytometry using purified antibodies. […] All murine antibodies were incubated for 3 h with either CD37-expressing 300-19 cells or the non-transfected 300-19 cells (1×10⁵ cells per sample) in 100 μL FACS buffer (RPMI-1640 medium supplemented with 2% normal goat serum). Then, the cells were pelleted, washed, and incubated for 1 h with 100 μL of FITC-conjugated goat anti-mouse IgG-antibody (Jackson Laboratory, 6 μg/mL in FACS buffer). The cells were pelleted again, washed with FACS buffer and resuspended in 200 μL of PBS containing 1% formaldehyde. Samples were acquired using a FACSCalibur flow cytometer with the HTS multiwell sampler or a FACS array flow cytometer and analyzed using CellQuest Pro (all from BD Biosciences, San Diego, US).
The chimeric antibodies chCD37-3 and chCD37-12 were assayed for their binding affinity to Ramos cells in comparison to their murine counterparts. Flow cytometry binding assays using Ramos cells and muCD37-3, chCD37-3, muCD37-12 and chCD37-12 antibodies were carried out and analyzed as described in Example 2 using secondary FITC-conjugated goat-anti-murine and -anti-human antibodies. […] The value for the apparent dissociation constant (Kd) of each antibody was calculated using GraphPad Prism v4 (GraphPad software, San Diego, Calif.).

- Kd: 1.2 nM
B1: chCD37-12 (antibody, human IgG1, kappa)
heavy: QIQLVQSGPELKKPGETVKISCKASGYTFTKYGMNWVKQAQGKGLKWMGWINTNTGESRNAEEFKGRFAFSLETSASTAYLQINNLKYEDTATYFCGRGTVVADWGQGTTLTVSS[not shown - human IgG1 constant region]
light: DIVLTQSPASLAVSLGQRATISCRASQSVSTSSYSYLYWFQQKPGQPPKLLIKYASNLASGVPARFSGSGSGTDFTLNIHPVEEEDTATYYCQHSWEIPYTFGGGTKLEIKRTVAAPSVFIFPPSDEQLKSGTASVVCLLNNFYPREAKVQWKVDNALQSGNSQESVTEQDSKDSTYSLSSTLTLSKADYEKHKVYACEVTHQGLSSPVTKSFNRGEC
notes: Chimeric antibody
